Results reported in US9242996B2 (Novartis AG, priority 2013, dated 2016).
Certain results were filed several times, with different values. Only these are listed. An entry can have further records. Values that stand side by side read as repeated measurements (runs, samples, wells or individuals).

Biological target: activated ERK2 (Homo sapiens (Human), UniProt P28482)
Experiment: Activated ERK2 (20 pM) Kinase Assay (AlphaScreen, ERKtide phosphorylation)
Format: biochemical
Details: 0.02 nM ERK2, 400 nM ERKtide peptide, 35 μM ATP, 30 min preincubation
Procedure: Activated ERK2 (20 pM) Kinase Assay:
The assay was carried out in 20 mM HEPES [pH 7.5], 5 mM MgCl2, 1 mM DTT, 0.01% Tween-20, 0.05% BSA using 0.02 nM ERK2, 400 nM ERKtide peptide and 35 μM ATP (all concentrations are final in the reaction) in a total volume of 10.25 μL. […] Compound dilution series were prepared in 100% DMSO. ERK2 was preincubated with compounds for 30 minutes at ambient temperature. Reaction was initiated by addition of a substrate cocktail of ERKtide peptide and ATP and was allowed to proceed for 4 hours at ambient temperature. Reaction was terminated by addition of 10 μL of a 2× stop buffer consisting of 100 mM Tris-Cl [pH 7.5], 25 mM EDTA, 0.01% Tween 20, 20 μg/mL of AlphaScreen Protein A Acceptor Beads, 20 μg/mL of Streptavidin Donor Beads (PerkinElmer, Waltham, Mass.), and 1:1000 dilution phospho-EGF Receptor (Thr669) antibody (Cat #8808, Cell Signaling Technology, Danvers, Mass.). Terminated reactions were read, after overnight incubation in the dark, on an EnVision Multilabel Plate Reader (PerkinElmer, Waltham, Mass.), with excitation and emission wavelengths set to 680 nm and 570 nm, respectively. IC50 values were determined using a four-parameter fit.

Sequence of activated ERK2 (P28482 whole entry): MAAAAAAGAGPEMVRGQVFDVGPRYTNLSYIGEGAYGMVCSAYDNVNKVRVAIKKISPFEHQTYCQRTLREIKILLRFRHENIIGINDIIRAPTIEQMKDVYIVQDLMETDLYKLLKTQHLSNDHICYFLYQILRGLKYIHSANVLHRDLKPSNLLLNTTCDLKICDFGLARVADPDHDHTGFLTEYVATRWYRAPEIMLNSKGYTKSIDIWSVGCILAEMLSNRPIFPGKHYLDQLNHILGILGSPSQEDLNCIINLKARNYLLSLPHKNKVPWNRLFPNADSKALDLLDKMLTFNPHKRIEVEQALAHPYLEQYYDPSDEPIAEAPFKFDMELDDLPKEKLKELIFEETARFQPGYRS

## NC[C@@H](NC(=O)c1ccc(-c2nc(C3CCC(F)(F)CC3)cnc2N)cc1F)c1cccc(Cl)c1 [Example 197, (S)—N-(2-amino-1-(3-chlorophenyl)ethyl)-4-(3-amino-6-(4,4-difluorocyclohexyl)pyrazin-2-yl)-2-fluorobenzamide]
  IC50: 0.751 nM and 0.04 nM [lines of one column]
